Here are results for 9 molecules from patent US20250257143A1 (FORTE SUBSIDIARY, published 2025).

Assay [1] addresses T1, huCD122-HIS (ARCO Bio | Cat No. CD2-H5221) (human, UniProt P14784 27-239).
T1 construct: Bought analyte of the BLI assay; also called human CD122; not shown: His tag
T1 sequence (looked up): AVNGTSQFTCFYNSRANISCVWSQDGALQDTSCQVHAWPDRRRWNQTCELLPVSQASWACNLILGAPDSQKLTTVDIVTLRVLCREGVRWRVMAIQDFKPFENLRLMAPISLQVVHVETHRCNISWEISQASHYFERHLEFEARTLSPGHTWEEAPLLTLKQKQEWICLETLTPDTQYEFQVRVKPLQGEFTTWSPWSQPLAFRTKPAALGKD
In words: BLI Octet, antibody captured on AHC sensor, huCD122-His analyte, 1:1 fit. The method, then: (§1) Based on Bio-Layer Interferometry (BLI), the Octet® BLI system is a fluidics-free instrument platform that enables real-time, label-free analysis for the determination of kinetics, affinity and antibody/protein quantitation. Binding experiments were performed on Octet HTX at 25° C. The analyte used was huCD122-HIS (ARCO Bio | Cat No. CD2-H5221) at a molecular weight of 25.4 kDa. The antibodies were loaded onto Anti-human Fc capture (AHC) sensors. The loaded sensors were dipped into serial dilutions of huCD122-His (Starting at 20 nM, 1:3 dilution, 4 points). Reference sample well (buffer) was used for data analysis. Kinetic constants were calculated using a monovalent (1:1) binding model. The assay buffer used was PBS with 0.1% BSA, […], pH 7.2. The regeneration buffer used was 10 mM Glycine buffer (pH 1.7). The four concentrations of huCD122-His used to determine anti-CD122 antibody binding and dissociation properties were 0.0 nM, 2.2 nM, 6.7 nM, and 20 nM. Sensorgram plots to display antibody binding characteristics were generated. The mouse parental chimera configurations in both IgG1 and IgG4 backbones (M5 IgG1 parental and M5 IgG4 parental) were tested as well as each combination of the humanized 3 HC and 3 LC variants in either an IgG1 or an IgG4 backbone.
A general note: In BLI a coated tip is dipped into the sample, and binding shifts an interference pattern.

For assay [2], the target named is T1, huCD122-HIS (ARCO Bio | Cat No. …). As to the kind of experiment: BLI Octet, antibody captured on AHC sensor, huCD122-His analyte, 1:1 fit; second batch. How it is done:
as §1

Broadly, the Kd is the concentration at which binding is half-saturated. Usually koff stands for a measure of how fast the partners let go of each other. Usually kon stands for the second-order rate constant of association.

B1: G3 (antibody, human IgG1, kappa)
heavy: QVQLVQSGAEVKKPGASVKVSCKASGYTFTSHWISWVRQAPGQGLEWMGDIYPGSGNTNYNEKLQGRVTMTVDTSTSTAYMELRSLRSDDTAVYYCARERGGFDYWGQGTLVTVSS[here human IgG1 constant region without letters]
light: DIQMTQSPSSLSASVGDRVTITCQASQDISNFLNWYQQKPGKTLKLLIYYTSGLHTGVPSRFSGSGSGTDFTFTISSLQPEDIATYYCQQDNNHPYTFGQGTKLEIKRTVAAPSVFIFPPSDEQLKSGTASVVCLLNNFYPREAKVQWKVDNALQSGNSQESVTEQDSKDSTYSLSSTLTLSKADYEKHKVYACEVTHQGLSSPVTKSFNRGEC
notes: Humanized, human IgG1 (G1M17), kappa
Regarding B1, in assay [1], the Kd came to 0.754 nM, the Response was determined as 0.394, the koff is 0.000395 s⁻¹ and the kon worked out at 524000 M⁻¹ s⁻¹.

B2: G17 (antibody, human IgG4 S228P, kappa)
heavy: QVQLVQSGAEVKKPGASVKVSCKASGYTFTSHWITWVRQAPGQGLEWMGDIYPGSGNTNYNEKFQGRVTLTVDTSISTAYMELSRLRSDDTVVYYCARERGGFDYWGQGTLVTVSSASTKGPSVFPLAPCSRSTSESTAALGCLVKDYFPEPVTVSWNSGALTSGVHTFPAVLQSSGLYSLSSVVTVPSSSLGTKTYTCNVDHKPSNTKVDKRV[here human IgG4 Fc with S228P (EU numbers) without letters]
light: DIQMTQSPSSLSASVGDRVTITCRASQDISNFLNWYQQKPGKAPKLLIYYTSGLHSGVPSRFSGSGSGTDFTLTISSLQPEDFATYYCQQDNNHPYTFGQGTKLEIKRTVAAPSVFIFPPSDEQLKSGTASVVCLLNNFYPREAKVQWKVDNALQSGNSQESVTEQDSKDSTYSLSSTLTLSKADYEKHKVYACEVTHQGLSSPVTKSFNRGEC
notes: Humanized, human IgG4 (S228P), kappa
Regarding B2, in assay [1], the Kd was 2.18 nM, the Response amounted to 0.305, the koff amounted to 0.000922 s⁻¹ and the kon turned out to be 424000 M⁻¹ s⁻¹.

B3: G6 (antibody, human IgG1, kappa)
heavy: QVQLVQSGAEVKKPGASVKVSCKASGYTFTSHWITWVRQAPGQGLEWMGDIYPGSGNTNYNEKFQGRVTLTVDTSISTAYMELSRLRSDDTVVYYCARERGGFDYWGQGTLVTVSS[here human IgG1 constant region without letters]
light: DIQMTQSPSSLSASVGDRVTITCQASQDISNFLNWYQQKPGKTLKLLIYYTSGLHTGVPSRFSGSGSGTDFTFTISSLQPEDIATYYCQQDNNHPYTFGQGTKLEIKRTVAAPSVFIFPPSDEQLKSGTASVVCLLNNFYPREAKVQWKVDNALQSGNSQESVTEQDSKDSTYSLSSTLTLSKADYEKHKVYACEVTHQGLSSPVTKSFNRGEC
notes: as for B1
For the molecule B3, in assay [1], the Kd worked out at 0.814 nM, the Response is 0.373, the off-rate (koff) is 0.000415 s⁻¹ and the kon was 509000 M⁻¹ s⁻¹.

B4: G4 (antibody, human IgG1, kappa)
heavy: QVQLVQSGAEVKKPGASVKVSCKASGYTFTSHWISWVRQAPGQGLEWMGDIYPGSGNTNYNEKLQGRVTMTVDTSTSTAYMELRSLRSDDTAVYYCARERGGFDYWGQGTLVTVSS[here human IgG1 constant region without letters]
light: DIQMTQSPSSLSASVGDRVTITCRASQDISNFLNWYQQKPGKAPKLLIYYTSGLHSGVPSRFSGSGSGTDFTLTISSLQPEDFATYYCQQDNNHPYTFGQGTKLEIKRTVAAPSVFIFPPSDEQLKSGTASVVCLLNNFYPREAKVQWKVDNALQSGNSQESVTEQDSKDSTYSLSSTLTLSKADYEKHKVYACEVTHQGLSSPVTKSFNRGEC
notes: as for B1
On to B4, for which, in assay [1], the equilibrium dissociation constant (Kd) worked out at 1.67 nM, the Response was found to be 0.363, the dissociation rate constant (koff) was 0.000801 s⁻¹ and the kon came out at 479000 M⁻¹ s⁻¹.

B5: G9 (antibody, human IgG1, kappa)
heavy: QVQLVQSGAEVKKPGASVKVSCKASGYTFTSHWITWVRQAPGQRLEWMGDIYPGSGNTNYNEKFQGRVTITVDTSASTAYMELSSLRSEDTAVYYCARERGGFDYWGQGTLVTVSS[here human IgG1 constant region without letters]
light: DIQMTQSPSSLSASVGDRVTITCQASQDISNFLNWYQQKPGKTLKLLIYYTSGLHTGVPSRFSGSGSGTDFTFTISSLQPEDIATYYCQQDNNHPYTFGQGTKLEIKRTVAAPSVFIFPPSDEQLKSGTASVVCLLNNFYPREAKVQWKVDNALQSGNSQESVTEQDSKDSTYSLSSTLTLSKADYEKHKVYACEVTHQGLSSPVTKSFNRGEC
notes: Humanized, human IgG1 (G1M17), kappa; Only the second batch was measured
On to B5, for which, in assay [2], the Kd is 0.869 nM, the Response is 0.36, the koff came to 0.000415 s⁻¹ and the kon was determined as 478000 M⁻¹ s⁻¹.

B6: G7 (antibody, human IgG1, kappa)
heavy: QVQLVQSGAEVKKPGASVKVSCKASGYTFTSHWITWVRQAPGQGLEWMGDIYPGSGNTNYNEKFQGRVTLTVDTSISTAYMELSRLRSDDTVVYYCARERGGFDYWGQGTLVTVSS[here human IgG1 constant region without letters]
light: DIQMTQSPSSLSASVGDRVTITCRASQDISNFLNWYQQKPGKAPKLLIYYTSGLHSGVPSRFSGSGSGTDFTLTISSLQPEDFATYYCQQDNNHPYTFGQGTKLEIKRTVAAPSVFIFPPSDEQLKSGTASVVCLLNNFYPREAKVQWKVDNALQSGNSQESVTEQDSKDSTYSLSSTLTLSKADYEKHKVYACEVTHQGLSSPVTKSFNRGEC
notes: as for B1
As for B6, in assay [1], the equilibrium dissociation constant (Kd) came to 1.78 nM, the Response worked out at 0.364, the koff is 0.000928 s⁻¹ and the association rate constant (kon) was found to be 521000 M⁻¹ s⁻¹.

B7: G16 (antibody, human IgG4 S228P, kappa)
heavy: QVQLVQSGAEVKKPGASVKVSCKASGYTFTSHWITWVRQAPGQGLEWMGDIYPGSGNTNYNEKFQGRVTLTVDTSISTAYMELSRLRSDDTVVYYCARERGGFDYWGQGTLVTVSSASTKGPSVFPLAPCSRSTSESTAALGCLVKDYFPEPVTVSWNSGALTSGVHTFPAVLQSSGLYSLSSVVTVPSSSLGTKTYTCNVDHKPSNTKVDKRV[here human IgG4 Fc with S228P (EU numbers) without letters]
light: DIQMTQSPSSLSASVGDRVTITCQASQDISNFLNWYQQKPGKTLKLLIYYTSGLHTGVPSRFSGSGSGTDFTFTISSLQPEDIATYYCQQDNNHPYTFGQGTKLEIKRTVAAPSVFIFPPSDEQLKSGTASVVCLLNNFYPREAKVQWKVDNALQSGNSQESVTEQDSKDSTYSLSSTLTLSKADYEKHKVYACEVTHQGLSSPVTKSFNRGEC
notes: as for B2
B7: in assay [1], the Kd is 1.03 nM, the Response worked out at 0.342, the koff stood at 0.000478 s⁻¹ and the kon turned out to be 466000 M⁻¹ s⁻¹. In assay [2], the equilibrium dissociation constant (Kd) stood at 1.18 nM, the Response worked out at 0.251, the koff amounted to 0.00064 s⁻¹ and the kon is 541000 M⁻¹ s⁻¹.

B8: G14 (antibody, human IgG4 S228P, kappa)
heavy: QVQLVQSGAEVKKPGASVKVSCKASGYTFTSHWISWVRQAPGQGLEWMGDIYPGSGNTNYNEKLQGRVTMTVDTSTSTAYMELRSLRSDDTAVYYCARERGGFDYWGQGTLVTVSSASTKGPSVFPLAPCSRSTSESTAALGCLVKDYFPEPVTVSWNSGALTSGVHTFPAVLQSSGLYSLSSVVTVPSSSLGTKTYTCNVDHKPSNTKVDKRV[here human IgG4 Fc with S228P (EU numbers) without letters]
light: DIQMTQSPSSLSASVGDRVTITCRASQDISNFLNWYQQKPGKAPKLLIYYTSGLHSGVPSRFSGSGSGTDFTLTISSLQPEDFATYYCQQDNNHPYTFGQGTKLEIKRTVAAPSVFIFPPSDEQLKSGTASVVCLLNNFYPREAKVQWKVDNALQSGNSQESVTEQDSKDSTYSLSSTLTLSKADYEKHKVYACEVTHQGLSSPVTKSFNRGEC
notes: as for B2
Regarding B8, in assay [1], the Kd came out at 1.75 nM, the Response was found to be 0.355, the koff was found to be 0.000697 s⁻¹ and the kon came out at 398000 M⁻¹ s⁻¹. Also, in assay [2], the Kd was 2.57 nM, the Response was 0.301, the off-rate (koff) was 0.00107 s⁻¹ and the kon was found to be 415000 M⁻¹ s⁻¹.

B9: G20 (antibody, human IgG4 S228P, kappa)
heavy: QVQLVQSGAEVKKPGASVKVSCKASGYTFTSHWITWVRQAPGQRLEWMGDIYPGSGNTNYNEKFQGRVTITVDTSASTAYMELSSLRSEDTAVYYCARERGGFDYWGQGTLVTVSSASTKGPSVFPLAPCSRSTSESTAALGCLVKDYFPEPVTVSWNSGALTSGVHTFPAVLQSSGLYSLSSVVTVPSSSLGTKTYTCNVDHKPSNTKVDKRV[here human IgG4 Fc with S228P (EU numbers) without letters]
light: DIQMTQSPSSLSASVGDRVTITCRASQDISNFLNWYQQKPGKAPKLLIYYTSGLHSGVPSRFSGSGSGTDFTLTISSLQPEDFATYYCQQDNNHPYTFGQGTKLEIKRTVAAPSVFIFPPSDEQLKSGTASVVCLLNNFYPREAKVQWKVDNALQSGNSQESVTEQDSKDSTYSLSSTLTLSKADYEKHKVYACEVTHQGLSSPVTKSFNRGEC
notes: as for B2
Turning to B9, in assay [1], the Kd was found to be 1.12 nM, the Response was determined as 0.318, the koff stood at 0.000466 s⁻¹ and the kon was determined as 415000 M⁻¹ s⁻¹.
